Results published in the supplement of paper PMC3334620.
The full ranking holds about 33,000 sequences; the median of “E-score (-0.5 to 0.5)” is about -0.054, and the highest 2% start at about 0.35. This is one part of the list.

The sequences below were run against T1, Stb5 (UniProt P38699) (assay: PBM E-score (8-mer binding enrichment) (E-score (-0.5 to 0.5)); higher = stronger / more preferred TF binding; most listed sequences are background and not binding sites). Conditions: protein concentration: 200 nM; construct: GST-full length.
T1 sequence: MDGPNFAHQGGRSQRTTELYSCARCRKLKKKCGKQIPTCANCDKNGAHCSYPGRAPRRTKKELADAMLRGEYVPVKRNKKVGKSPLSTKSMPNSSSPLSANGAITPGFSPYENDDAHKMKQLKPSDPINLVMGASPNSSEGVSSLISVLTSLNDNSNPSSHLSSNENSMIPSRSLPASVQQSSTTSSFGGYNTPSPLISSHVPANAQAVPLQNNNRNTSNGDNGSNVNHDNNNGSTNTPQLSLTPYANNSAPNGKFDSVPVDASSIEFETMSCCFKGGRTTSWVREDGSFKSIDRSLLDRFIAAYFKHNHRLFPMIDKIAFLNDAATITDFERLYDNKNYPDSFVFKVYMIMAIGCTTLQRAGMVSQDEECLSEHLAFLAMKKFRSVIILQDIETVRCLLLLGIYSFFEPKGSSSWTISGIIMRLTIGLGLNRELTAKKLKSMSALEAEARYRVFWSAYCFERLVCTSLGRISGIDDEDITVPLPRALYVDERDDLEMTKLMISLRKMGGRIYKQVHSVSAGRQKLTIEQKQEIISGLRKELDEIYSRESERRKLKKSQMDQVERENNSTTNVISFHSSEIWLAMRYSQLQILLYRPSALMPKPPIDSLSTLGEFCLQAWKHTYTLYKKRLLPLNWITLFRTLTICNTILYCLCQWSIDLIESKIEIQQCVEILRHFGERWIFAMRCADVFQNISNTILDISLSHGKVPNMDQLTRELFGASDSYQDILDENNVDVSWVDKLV
Summary of the method: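 GST-tagged yeast TFs (full-length or DNA-binding domain) were made by PURExpress in vitro transcription/translation and applied at about 100-200 nM to universal all-10-mer Agilent arrays. The arrays were made double-stranded by primer extension, on fresh or once-stripped slides. Bound protein was detected with fluorescent anti-GST, and scans were normalised with masliner. Each ungapped eight-base word, pooled with its reverse complement, received an E-score (modified Wilcoxon-Mann-Whitney statistic) from the Universal PBM Analysis Suite.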

Sequence	PBM E-score
AACCTTAA	-0.108
AAAGTCTC	-0.145
GCAATTGC	0.0444
TGATTTAA	0.0984
CCACGTGA	0.088
ACAGCGAG	-0.0752
AACGTGGG	-0.0838
CAATGTTC	0.0981
AGCATCCG	0.0966
ATGCTCTG	-0.198
CCTCTCGA	-0.271
ACGGCGCC	0.196
GGATTGTA	-0.0877
ACCTACGT	0.0406
CAACCCTG	-0.293
CTACGAAG	-0.281
GGGACTTA	0.144
CATGCACA	-0.234
GCGCATGA	-0.113
ATCGCACA	-0.0532
CATATTGA	-0.264
AGCCCGGA	0.215
CATTGGAG	-0.0911
CAAACGCA	-0.142
CATCTAAC	0.0467

Sequence	PBM E-score
CGGGTGCA	0.181
GTAACTAA	0.064
CCCCTGCA	-0.169
GACATCAC	-0.00363
CAATGGCC	0.0847
CAGTGGGC	-0.161
AATGACTC	-0.235
AATGACAG	-0.356
GACTTGCC	-0.164
ACAAGAGA	-0.163
CTAGGCAA	-0.0267
ATACATTC	-0.228
CATCACGA	-0.252
CTCTGTCC	0.0188
CGTTAGAA	-0.00687
ACTTCCTA	-0.176
AGCGCGTC	-0.0918
ACACTAAA	-0.0418
GCAGCACC	0.0741
CTGGGTCC	0.0474
CCATGTCC	0.101
GGCCGCAA	0.112
CGAACGTA	-0.0671
AATGTCGT	-0.169
ACGGACCC	0.216

Sequence	PBM E-score
GCGAACCC	0.0806
AGAAAACT	-0.264
ACGTAAAT	-0.0679
AGAGACAC	-0.161
AGGGAGGA	-0.24
ACTGTGGA	-0.265
GATCCGCC	0.196
CGCCTGAC	0.0936
GTCGAGCA	-0.256
ATTCCCTG	-0.0534
GTAGCTAC	-0.258
AGCAGTAG	-0.185
AATGGTCC	0.0798
CCGCCTAG	0.117
AGACCAGA	-0.27
AAGCGCAA	-0.0146
CACATTAG	-0.207
ATTGCTAA	-0.119
CGGAACTA	0.44
GGATATCC	0.131
AGACGACT	-0.215
GAATATCC	0.161
ACGCAACT	-0.0791
CTTGGATC	-0.119
CGGTGGAA	0.233

Sequence	PBM E-score
AGGGAAAG	-0.276
GAAGATAA	-0.0198
AACTTAAG	0.123
CAAGTCAG	-0.17
GAACTGCC	-0.118
ATGGAGTC	-0.0879
GACCGATA	0.249
ATCTGCGA	-0.118
CCCGATCG	0.346
AGCACTAG	-0.135
GCAGATAC	0.00269
CTGATATA	0.0517
GTTCATCA	-0.136
ACGACTCT	-0.275
CGATCACC	0.0687
CTGCGAAA	-0.0664
AGCTGACT	-0.135
CTGTAGTA	-0.043
CATCTGGA	0.0546
CCGGCGTA	0.345
CCTTCGAG	-0.0947
GATTTTTA	0.144
GATAGCCC	-0.0423
AACGTGCA	-0.274
AACCGTGC	-0.0876

Sequence	PBM E-score
ACATTCTA	-0.138
CCAATAGA	-0.222
CGATACCA	-0.111
GGGTATAA	0.299
CTGACTAA	0.0132
CGGTAGCC	-0.00942
GAAGAATC	0.0713
CTGTATCA	-0.168
ATTGTTGG	-0.0204
AGTGGGAA	0.007
CACTCTGA	-0.0883
CAGTTCGA	-0.059
GACTACCA	-0.0395
CCGGGTAA	0.212
GAGGCTGC	-0.213
CGAGCCCC	-0.0284
AGCAATAG	0.0872
GTTCCTCA	-0.0537
ACCGTGCG	0.27
CGGCTTAA	0.351
AACATACA	0.102
AGAGGCTA	-0.136
GTAGGCAA	-0.246
ACGTCGTG	-0.178
GATCTACC	-0.0916

Sequence	PBM E-score
CCCCACAG	-0.245
CCCGGGTA	0.101
AAACGTTG	-0.259
AGCATCGC	0.0104
GACTCCTA	-0.257
AGCGTATG	-0.0246
AACGACTT	-0.163
CTTAGAAG	-0.246
CATTCTAC	-0.0787
CAATACTA	-0.205
CAGTCATG	-0.174
GATTTATA	0.2
CGGGCTGC	0.0125
CTGGCTAC	-0.281
CACATATG	-0.222
ACAATCCT	-0.0886
ATGTGTCA	-0.122
AACCCTGC	-0.225
CGTAGCTA	-0.214
GTACCTAA	-0.0871
AACTCTGG	-0.224
ACCCGCCC	0.276
AATAATCC	0.0985
ACGTCTTG	-0.186
CTATGGAC	0.0664

Sequence	PBM E-score
TATCCACA	-0.244
ATTGCTGG	-0.0126
AGTTTCCA	-0.0582
GAAATTTC	-0.0694
AGGACCGC	0.397
GAGTACTA	-0.223
CGACTACA	-0.0923
AGCTATAG	-0.101
AGCAAAGA	-0.128
GGGGGTAC	0.23
AAAGAGCT	-0.151
AGTTGAAT	-0.138
CAGCTCGC	-0.201
ATGGACTG	-0.26
CTGAAAGC	0.0506
AATTTCTC	0.103
TCCACCAA	-0.103
AACCAAGA	-0.0513
AAGGGATA	-0.138
CGACAACC	-0.118
GCAAGCGA	-0.222
CTCCACAA	-0.191
